{"source": "PubChem BioAssay (NCI)", "test_system": "NCI-H322M lung", "experiment": "DTP human tumour cell line panel, 48 h", "note": "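Five compound concentrations were applied to cells in 96-well plates for 48 hours; endpoints were derived by simple linear interpolation of the resulting dose-response curve. GI50: concentration for 50% inhibition of growth. The concentration for full growth arrest is given as TGI.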", "data": [{"compound": "C#C[C@]1(O)CC[C@H]2[C@@H]3CC=C4c5sc(Nc6cccc(Cl)n6)nc5CC[C@]4(C)[C@H]3CC[C@@]21C", "values": [{"measurement": "GI50", "result": 2.12, "unit": "µM"}, {"measurement": "TGI", "result": 6.98, "unit": "µM"}]}]}
